Results are given in words; binding and its absence hold for the method and conditions named. In cells and extracts the contact can be indirect. Some entries that bind do so weakly or less than the wild type.
How the values were obtained:
[1] = biological target: FLAG-tagged TDP43 (Transactive response DNA-binding protein ~43 kDa) (UniProt Q13148); assay: co-IP; lysates of macrophages infected with lenti-control or lenti-TDP43 (with or without 40 μg/mL oxLDL for 24 h in Figure 3D); precipitated with FLAG antibody and protein A/G agarose at 4°C, western blot
[2] = biological target: β-catenin (human (endogenous in THP-1)) (UniProt P35222); assay: co-IP; lysates of macrophages infected with lenti-control or lenti-TDP43 for 48 h; endogenous β-catenin and PPAR-γ; the methods list an anti-β-catenin antibody for precipitation; protein A/G agarose at 4°C, western blot
[3] = biological target: Transactive response DNA-binding protein ~43 kDa (TDP43), endogenous (human (endogenous in THP-1)) (UniProt Q13148); assay: co-IP; lysates of macrophages treated with or without oxLDL (40 or 60 μg/mL) for 24 h; endogenous TDP43 precipitated with TDP43 antibody and protein A/G agarose at 4°C, western blot

Protein sequences, listed by entry. Tags and fused reporters are not part of them.
UniProt Q13148: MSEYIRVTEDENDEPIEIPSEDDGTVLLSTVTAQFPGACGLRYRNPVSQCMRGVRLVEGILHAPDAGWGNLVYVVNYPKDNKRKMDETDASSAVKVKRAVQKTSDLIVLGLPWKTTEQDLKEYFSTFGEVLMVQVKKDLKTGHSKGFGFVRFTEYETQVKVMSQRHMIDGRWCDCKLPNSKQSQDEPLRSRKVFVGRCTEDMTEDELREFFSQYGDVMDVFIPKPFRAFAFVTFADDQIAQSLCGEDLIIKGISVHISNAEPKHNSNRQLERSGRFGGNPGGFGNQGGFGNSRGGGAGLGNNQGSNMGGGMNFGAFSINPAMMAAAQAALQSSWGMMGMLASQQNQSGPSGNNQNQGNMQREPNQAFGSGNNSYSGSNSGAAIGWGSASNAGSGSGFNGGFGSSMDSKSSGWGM
UniProt P35222: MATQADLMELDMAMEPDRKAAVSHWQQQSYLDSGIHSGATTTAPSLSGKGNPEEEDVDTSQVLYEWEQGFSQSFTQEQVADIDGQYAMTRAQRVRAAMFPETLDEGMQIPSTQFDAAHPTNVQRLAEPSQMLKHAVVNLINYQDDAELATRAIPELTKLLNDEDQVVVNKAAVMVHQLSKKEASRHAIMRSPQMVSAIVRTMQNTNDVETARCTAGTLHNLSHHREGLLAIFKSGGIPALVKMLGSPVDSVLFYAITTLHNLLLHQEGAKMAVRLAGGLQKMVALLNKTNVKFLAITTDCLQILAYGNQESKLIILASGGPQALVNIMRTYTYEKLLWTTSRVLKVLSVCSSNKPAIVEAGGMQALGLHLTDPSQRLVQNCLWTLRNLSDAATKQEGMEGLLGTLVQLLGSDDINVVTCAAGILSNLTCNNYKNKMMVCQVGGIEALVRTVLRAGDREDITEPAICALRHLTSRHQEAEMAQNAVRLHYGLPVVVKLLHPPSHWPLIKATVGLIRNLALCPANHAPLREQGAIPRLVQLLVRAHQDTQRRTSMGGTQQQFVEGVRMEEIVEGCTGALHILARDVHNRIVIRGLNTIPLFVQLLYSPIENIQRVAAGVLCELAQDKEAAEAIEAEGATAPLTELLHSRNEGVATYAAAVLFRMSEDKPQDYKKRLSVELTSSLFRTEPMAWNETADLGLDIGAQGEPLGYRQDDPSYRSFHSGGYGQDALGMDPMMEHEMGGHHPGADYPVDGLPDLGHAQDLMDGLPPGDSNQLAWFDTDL
UniProt P37231: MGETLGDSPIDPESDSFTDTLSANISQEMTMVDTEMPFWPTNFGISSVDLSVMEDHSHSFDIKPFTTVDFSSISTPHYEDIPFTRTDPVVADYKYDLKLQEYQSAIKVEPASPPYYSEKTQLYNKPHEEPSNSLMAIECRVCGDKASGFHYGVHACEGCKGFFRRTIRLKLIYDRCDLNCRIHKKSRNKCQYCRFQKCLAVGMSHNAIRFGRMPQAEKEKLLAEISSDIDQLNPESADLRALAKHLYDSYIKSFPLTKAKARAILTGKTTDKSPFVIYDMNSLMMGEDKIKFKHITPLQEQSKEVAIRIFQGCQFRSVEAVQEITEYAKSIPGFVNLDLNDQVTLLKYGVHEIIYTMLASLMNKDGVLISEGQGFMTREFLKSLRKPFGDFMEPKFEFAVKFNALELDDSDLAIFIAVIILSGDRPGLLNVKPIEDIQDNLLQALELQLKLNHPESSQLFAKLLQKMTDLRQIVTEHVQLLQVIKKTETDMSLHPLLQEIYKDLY

binding [1] | binding [2] | binding [3] | Substance
no binding | binds | no binding | peroxisome proliferator-activated receptor gamma (PPAR-γ) (from UniProt P37231 1-505)
binds | – | binds | β-catenin (from UniProt P35222 1-781)
